The supplement of paper PMC3334620
Over roughly 33,000 sequences, “E-score (-0.5 to 0.5)” has its median near -0.04; the highest 2% begin near 0.36. This is one part of the list.

What follows are sequences tested against T1, Hmlalpha2 (UniProt P0CY09) (assay: PBM E-score (8-mer binding enrichment) (E-score (-0.5 to 0.5)); higher = stronger / more preferred TF binding; most listed sequences are background and not binding sites). Conditions: protein concentration: 200 nM; construct: GST-full length.
T1 sequence: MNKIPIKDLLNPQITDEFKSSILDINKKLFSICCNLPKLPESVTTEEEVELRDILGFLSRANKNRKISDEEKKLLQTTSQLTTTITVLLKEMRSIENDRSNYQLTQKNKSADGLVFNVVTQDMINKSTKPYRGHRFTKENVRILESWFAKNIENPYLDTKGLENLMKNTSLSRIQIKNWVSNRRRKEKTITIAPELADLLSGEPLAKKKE
In short: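 E-scores (a modified Wilcoxon-Mann-Whitney statistic) were assigned by the Universal PBM Analysis Suite to every ungapped eight-base word pooled with its reverse complement. The input came from universal all-10-mer Agilent arrays made double-stranded by primer extension and probed with GST-tagged yeast transcription factors at about 100-200 nM. Fluorescent anti-GST detected bound protein, and masliner normalised the scans.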

Sequence | PBM E-score
AGGTGCCA | -0.19
CTTTCTCA | 0.17
GAAAAAAC | 0.0722
ATAATGAT | 0.116
GCGGTAGC | -0.135
ATACGGTA | 0.00709
ATACCACA | 0.12
CACCTGGC | -0.165
GAGTAGGC | -0.278
CTTCGTTC | -0.212
CGTGTTCC | 0.2
CGAGACCC | -0.0926
GCGTCTCC | -0.033
GAGACGAA | -0.115
ATGTGATC | 0.228
CGTATAAA | 0.335
GCCTATCA | -0.095
ATATAGGA | 0.0657
ATCACTTG | -0.038
GCGGGGGA | -0.234
GGTCGCAA | -0.0889
CCATCACC | -0.147
ACCGTGTC | 0.264
CCAAGGCA | -0.207
GACCCAAC | -0.188

Sequence | PBM E-score
ACACTTCC | -0.111
AATGTCGC | 0.0679
CTCCGGCA | -0.175
GGGTCGAC | -0.136
CAGCGTAC | -0.128
CTCCTTTC | -0.28
AAGCTTTA | 0.154
ACTGTAGA | 0.0789
CGGGGTAC | -0.19
CAGGTCGC | -0.17
ATTTCTCA | 0.0292
TCAAATAA | 0.0782
AGGGTATA | 0.0259
ATGGGTTC | -0.196
GACAGATC | 0.0561
ACAAAACC | 0.234
AACTCCCT | -0.0726
CATTTATC | 0.0223
ACCTCGGG | -0.136
GAGGGTAA | -0.149
ACGATTCT | 0.0326
GTTTTATA | 0.144
ACTCAATG | 0.174
ACTCCGAG | -0.0518
CTGCTCTC | -0.0476

Sequence | PBM E-score
GCATCTAC | 0.141
GACGACCC | -0.145
CGCCGTAC | 0.127
CAGCTTTC | -0.103
GCGGGGCA | -0.187
AACAGAAG | -0.131
GACTCAGC | -0.124
ACTCAGTA | 0.0821
CAACGCCG | 0.0576
CCACAAGC | -0.211
AAGGCACC | -0.0779
CTACTCAA | 0.216
ACGTGTCA | 0.392
TAAGGCCA | 0.0046
GCGGTGAC | -0.157
GCGATTGA | -0.0743
CTACGCGC | 0.302
CGAGCAAG | -0.145
ACAGTTCT | -0.0804
TCTGCGAA | -0.00695
ACACGTTG | 0.35
ATGCCCCG | -0.315
AGAAACGA | 0.00868
ACATCCCC | 0.0184
CCCCCAAA | -0.126

Sequence | PBM E-score
TACCGCAA | 0.101
CCTCTGAG | -0.305
ACGGTGAG | -0.129
CATCCTGA | 0.0602
CCATGGTA | 0.00138
GAGATCGC | -0.0829
GGCATAAA | -0.0898
CCCAGTAG | -0.0854
AAAGACAG | 0.0979
GTAGGAGA | -0.184
AGAGGGCG | -0.0779
ACAGTGAA | 0.17
GACCTGAC | -0.203
AGCCCCTA | -0.386
GAGGCCCA | -0.295
AATGTACC | 0.166
TGAACTAA | 0.0175
AAGTTATC | 0.114
GGATAACC | -0.122
CTCGAGAG | -0.106
CGTTTCCC | -0.141
CCTACTCA | -0.25
CGCACAGA | 0.0312
CGCGACAG | -0.139
CTCCGTAA | -0.017

Sequence | PBM E-score
CCCATCTC | -0.341
AAGCGGAG | -0.065
CCCTTGAC | -0.16
CAGGACTA | -0.175
CGATTTCA | 0.138
CAACTATG | 0.132
CGTTTCCA | -0.0334
CTCGTTTA | 0.19
AAGATCTT | -0.112
CTCTGCAG | -0.217
CTTTTTAA | 0.126
CGGCGTCA | -0.0823
ACAAGCGG | 0.201
ACCGTAAT | -0.0654
GATGTCAC | 0.00819
AATAGACC | -0.0949
ATCATGAC | 0.183
ATGAGAAC | 0.144
CCAGCCGA | -0.358
ACTATCAA | 0.0674
CGGAACTC | -0.222
CACCGTAC | -0.0899
AAATCCTG | 0.0248
CATGCTTA | 0.148
TCTAATCA | -0.013

Sequence | PBM E-score
GGATTTTA | 0.0587
AAGCGTCT | -0.232
CTACGTAG | 0.257
AGGCCTTA | -0.26
CAATGACG | 0.0229
TATTATCA | 0.168
ATGTAAGC | 0.374
CCTAAAGA | -0.207
GTAATCGA | 0.346
GAGATTCA | -0.177
TGGAAACA | -0.0534
ACGAACAC | 0.259
AGTGGCTA | -0.155
GCTTGAAC | 0.129
CCGGCGGA | -0.234
CATCAGAG | -0.119
ACCGATAG | -0.179
TACAAAGA | 0.317
CCGGACCG | -0.303
AGCAATCC | -0.192
ACGTTGTA | 0.334
GGGACACC | -0.406
CAAGTGCC | -0.159
CTCGGGAC | -0.337
ACGGTGCA | 0.063

Sequence | PBM E-score
ACTGGGCG | -0.159
TACTGTGA | -0.124
AGACAGTC | -0.125
AACTGAAG | 0.123
TCAAGGCA | -0.18
GCAATGGC | -0.185
AGCCAGAA | -0.103
CCTCGGAG | -0.213
CAGGATAA | -0.021
AGGTCCAA | -0.112
AACGGATT | 0.139
CAATATTC | -0.0931
ATGCGGGG | -0.19
CCAGGAAC | -0.16
CTCATTTA | 0.0583
CTGATTTC | -0.118
CAGGGCCA | -0.241
ACGATCCT | -0.0378
AACGCTAT | -0.0875
CTCAGCCA | -0.154
TAATAAAA | 0.28
CACACCCG | 0.0239
GCCAAAAC | -0.0313
CGAATGCG | 0.0199
ACTGTCCC | -0.229

Sequence | PBM E-score
AAGAGGGC | -0.143
TAGTCGCA | -0.085
CAAATTAG | 0.0737
AAATGTTA | 0.33
ATCGACCC | -0.146
GGCTGTAC | -0.108
GGGCTGCA | -0.322
AAGGATGG | -0.0478
GGTAATGA | 0.13
AGGTCAAC | 0.0659
CCTGGCCA | -0.135
GCTAGAAC | -0.158
ATCGTCGA | -0.093
GATGCGGA | -0.064
CGTCCGCC | -0.185
CCAGATCA | 0.236
GGGTGCAC | -0.146
CCTGGAAC | 0.0485
ATAATACC | 0.0152
GTCTCTCA | -0.0199
AAGCTATG | -0.119
GCACAACA | 0.187
TCGCTCCA | -0.0399
ACCACTGC | -0.278
GGTCGCTA | -0.182

Sequence | PBM E-score
CCCCGCGG | -0.175
AGGACGCA | -0.239
GATCGTCA | -0.0403
GGTTTATA | 0.101
AAGAGCAG | -0.12
ACTCGGAT | -0.0542
CGCACGAA | 0.0855
CAAGTCGA | -0.0869
AGCCCGAA | -0.288
GACTTCAA | -0.131
ACAGCGTG | 0.265
ACTTGGTG | -0.198
CCGGTGTC | -0.226
AGAGAACT | -0.0018
CACGTGAC | 0.0799
CAATTAGA | 0.121
AATAATCA | 0.129
CTCTTCAC | -0.0517
CCATCGGC | -0.271
CATCATGG | -0.249
GCTTTTGA | -0.0539
CATTTTAA | 0.189
CCGCGATA | -0.00806
AGCTCCAG | -0.311
GCCGGTTA | -0.00182

Sequence | PBM E-score
GCACGAGA | -0.182
TACGACCA | 0.0532
AGAGCACA | -0.0359
ACCTATAT | 0.132
CCGGTAGA | -0.155
AATCGCTC | -0.278
ACGTGAGT | 0.0314
GAAGTATC | -0.00116
ACTGGGAA | -0.0738
ATCTACGA | 0.014
AAGTTATG | 0.256
CAACCAGG | 0.0197
CTTAAGTA | 0.0845
CCAATTCA | 0.0971
GGTAAATA | 0.167
CCTGTACA | 0.304
ACGGAGGG | -0.228
CATGTGCA | 0.135
AGCATGGC | -0.00608
AGTTACCA | 0.117
CGCAAGAC | -0.132
AGGAGACG | -0.201
GCGGGATA | -0.0516
GCCATATA | 0.0375
ATACATAA | 0.392

Sequence | PBM E-score
CCACACAG | -0.0322
GCTCTGGA | -0.0396
AGCTCCCT | -0.192
AGCGATCC | -0.112
CAGGCATG | 0.189
AACGATGT | 0.316
CAGCGACG | -0.0401
GCTAGACC | -0.362
CATAGAAA | 0.101
GTTACGTA | 0.293
ATGCAGGA | 0.0208
ATCGCCAG | -0.171
ATAACCAG | 0.0636
AAGCGTAG | -0.122
AATGAGAT | 0.207
CCAAAGAC | -0.0218
TAAGTCCA | -0.0524
ACACAAGT | 0.257
CCAGATGC | -0.0584
ATTCTCTA | -0.0415
GACGCCCC | -0.244
GTAGATAA | 0.281
TCCTCCGA | -0.258
ATATCAGA | 0.22
CGTGTTTC | 0.272

Sequence | PBM E-score
TCGCCGAA | -0.222
ACAAATTA | 0.267
ATGGGTCA | -0.103
AGTGCATA | 0.1
ATCTCCCC | -0.304
CAACCATC | -0.146
GGTTCGAC | -0.00323
AACGGGCC | -0.181
CAGAGAGC | -0.362
ACTACGCA | 0.193
CCATCCCA | -0.295
AATGTGTC | 0.0899
TGACACAA | 0.267
CGTTCTCA | 0.0289
CCCTTAGA | -0.353
AGAATTAC | 0.356
GCTAGAAA | 0.0549
CCAGACCA | -0.179
CTCACACA | 0.114
GAATGTCA | 0.0786
ATGGGAGC | -0.138
TAGCCATA | 0.0377
ACGCTAGC | -0.137
GATGCGCC | -0.203
AAGAATTG | 0.0631

Sequence | PBM E-score
CAACTGGA | -0.282
CTATGCAC | -0.0914
TGAGCCAA | -0.0404
GACACACC | 0.0837
ACCCAGTA | -0.0976
AACCGTGG | -0.166
CCGCGCGC | -0.242
CATCCCCA | -0.23
CAAGCGAG | -0.0133
GCATAGAA | -0.0269
AATAGAGA | -0.053
ACGAACGG | 0.0877
ACGTCTCG | 0.064
GTGGAGTA | 0.0189
CATTAATA | 0.199
AGAGTCCC | -0.368
ATGTGCAC | 0.0166
AAGCAGCT | -0.0589
CTGCTGCC | -0.231
ATCTCTTA | 0.0731
GGTAGACA | -0.0874
GTACATAA | 0.377
AGGTGAAG | -0.0123
TGTCGACA | 0.221
GCCGCCCC | -0.213

Sequence | PBM E-score
AAGGAATT | -0.188
ACCGCCAC | -0.0584
ATCGGCAA | -0.25
ACTGCAGC | -0.186
AAAGAGTC | -0.291
ATTTACAG | 0.269
AAGTGTCT | 0.0533
ACAGATTC | 0.157
GCACCGCA | -0.215
TACCTTCA | 0.118
AGACGCCA | -0.197
GCGATCCA | -0.0023
AGATATTA | -0.0188
CCAGCCAG | -0.308
AGGCTATA | -0.0923
GGACTGGA | -0.162
CTGCATTA | 0.0439
CCAGAGGC | -0.299
TAAGAGTA | 0.113
